Assay results taken from the supplement of paper PMC4604168 (melanoma cell lines).
The list shows a part of the results. Most values come without repeats; read them as rough.

Columns and labels:
Assay in all cases: cell count relative to DMSO control; melanoma cells; higher = more viable cells
Conditions in all cases: library dose: standard library concentration; 72 h
A101D = tested on: A101D
A2058 = tested on: A2058
A375 = tested on: A375
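Also: cells treated in 1,536-well plates, then fixed and DAPI-stained, with nuclei counted from automated high-throughput microscope images.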

| SMILES | cell count (A101D) [%] | cell count (A2058) [%] | cell count (A375) [%] |
| --- | --- | --- | --- |
| NC1(c2ccc(-c3nc4ccn5c(=O)[nH]nc5c4cc3-c3ccccc3)cc2)CCC1 + C#Cc1cccc(Nc2ncnc3cc(OCCOC)c(OCCOC)cc23)c1 [erlotinib] (first compound 2 µM, partner dose 4 µM) | 60.6 | 46.6 | 81.5 |
| NC1(c2ccc(-c3nc4ccn5c(=O)[nH]nc5c4cc3-c3ccccc3)cc2)CCC1 + O=C(O)c1ccc(-c2c[nH]c3ncc(-c4ccccc4)cc23)cc1C1CCCC1 [GSK650394] (first compound 2 µM, partner dose 0.8 µM) | 91.3 | 93.3 | 109 |
| CCCS(=O)(=O)Nc1ccc(F)c(C(=O)c2c[nH]c3ncc(Cl)cc23)c1F + COCC[n+]1c2c(n(Cc3cnccn3)c1C)C(=O)c1ccccc1C2=O [YM155] (first compound 0.4 µM, partner dose 0.002 µM) | 64.8 | 17.3 | 80.2 |
| NC1(c2ccc(-c3nc4ccn5c(=O)[nH]nc5c4cc3-c3ccccc3)cc2)CCC1 + C=CCNC1=C2C[C@@H](C)C[C@H](OC)[C@H](O)[C@@H](C)/C=C(\C)[C@H](OC(N)=O)[C@@H](OC)/C=C\C=C(/C)C(=O)NC(=CC1=O)C2=O [Tanespimycin] (first compound 2 µM, partner dose 0.01 µM) | 82.6 | 94.6 | 105 |
| CN(c1ncccc1CNc1nc(Nc2ccc3c(c2)CC(=O)N3)ncc1C(F)(F)F)S(C)(=O)=O + C[C@@H](Oc1cc(-c2cnn(C3CCNCC3)c2)cnc1N)c1c(Cl)ccc(F)c1Cl [Crizotinib] (first compound 0.4 µM, partner dose 1 µM) | 94.6 | 79.6 | 91.7 |
| NC1(c2ccc(-c3nc4ccn5c(=O)[nH]nc5c4cc3-c3ccccc3)cc2)CCC1 + O=C(Nc1cccc(Cl)c1)Nc1ncc(CCNc2ncnc3ccsc23)s1 [SNS314] (first compound 2 µM, partner dose 0.004 µM) | 70.5 | 81 | 97.5 |
| CS(=O)(=O)c1ccc(C(=O)Nc2ccc(Cl)c(-c3ccccn3)c2)c(Cl)c1 [vismodegib] + CC(=O)c1c(C)c2cnc(Nc3ccc(N4CCNCC4)cn3)nc2n(C2CCCC2)c1=O [palbociclib] (first compound 5 µM, partner dose 0.2 µM) | 69.7 | 132 | 74.1 |
| NC1(c2ccc(-c3nc4ccn5c(=O)[nH]nc5c4cc3-c3ccccc3)cc2)CCC1 + CN1CCN(c2ccc3nc(-c4c(N)c5c(F)cccc5[nH]c4=O)[nH]c3c2)CC1 [Dovitinib] (first compound 2 µM, partner dose 0.5 µM) | 60.6 | 29.7 | 89.3 |
| CN(c1ncccc1CNc1nc(Nc2ccc3c(c2)CC(=O)N3)ncc1C(F)(F)F)S(C)(=O)=O + Cn1cncc1[C@@](N)(c1ccc(Cl)cc1)c1ccc2c(c1)c(-c1cccc(Cl)c1)cc(=O)n2C [tipifarnib] (first compound 0.4 µM, partner dose 0.05 µM) | 81.6 | 79.2 | 93 |
| CN(c1ncccc1CNc1nc(Nc2ccc3c(c2)CC(=O)N3)ncc1C(F)(F)F)S(C)(=O)=O + Nc1nc(F)nc2c1ncn2[C@@H]1O[C@H](CO)[C@@H](O)[C@@H]1O [fludarabine] (first compound 0.4 µM, partner dose 1 µM) | 65.3 | 73 | 18.3 |
| CCCS(=O)(=O)Nc1ccc(F)c(C(=O)c2c[nH]c3ncc(Cl)cc23)c1F + C=CCn1c(=O)c2cnc(Nc3ccc(N4CCN(C)CC4)cc3)nc2n1-c1cccc(C(C)(C)O)n1 [MK1775] (first compound 0.4 µM, partner dose 0.1 µM) | 49.3 | 79.4 | 58.8 |
| C=C(c1ccc(C(=O)O)cc1)c1cc2c(cc1C)C(C)(C)CCC2(C)C [Bexarotene] + Cn1cncc1[C@@](N)(c1ccc(Cl)cc1)c1ccc2c(c1)c(-c1cccc(Cl)c1)cc(=O)n2C [tipifarnib] (first compound 10 µM, partner dose 0.05 µM) | 86.2 | 75.5 | 81.2 |
| NC1(c2ccc(-c3nc4ccn5c(=O)[nH]nc5c4cc3-c3ccccc3)cc2)CCC1 + COc1cc2c(Oc3ccc4[nH]c(C)cc4c3F)ncnc2cc1OCCCN1CCCC1 [cediranib] (first compound 2 µM, partner dose 2 µM) | 90.2 | 87.5 | 122 |
| CS(=O)(=O)c1ccc(C(=O)Nc2ccc(Cl)c(-c3ccccn3)c2)c(Cl)c1 [vismodegib] + CC(C)C[C@H](NC(=O)[C@H](Cc1ccccc1)NC(=O)c1cnccn1)B(O)O [Bortezomib] (first compound 5 µM, partner dose 0.005 µM) | 19.2 | 23.2 | 96.8 |
| NC1(c2ccc(-c3nc4ccn5c(=O)[nH]nc5c4cc3-c3ccccc3)cc2)CCC1 + Cn1cncc1[C@@](N)(c1ccc(Cl)cc1)c1ccc2c(c1)c(-c1cccc(Cl)c1)cc(=O)n2C [tipifarnib] (first compound 2 µM, partner dose 0.05 µM) | 72.3 | 65.7 | 94.4 |
| CCCS(=O)(=O)Nc1ccc(F)c(C(=O)c2c[nH]c3ncc(Cl)cc23)c1F + Cc1cc(N2CCOCC2)cc2[nH]c(-c3c(NC[C@@H](O)c4cccc(Cl)c4)cc[nH]c3=O)nc12 [BMS536924] (first compound 0.4 µM, partner dose 1 µM) | 63.5 | 110 | 78.2 |
| CN(c1ncccc1CNc1nc(Nc2ccc3c(c2)CC(=O)N3)ncc1C(F)(F)F)S(C)(=O)=O + CC(C)(C)c1cnc(CSc2cnc(NC(=O)C3CCNCC3)s2)o1 [SNS-032] (first compound 0.4 µM, partner dose 0.05 µM) | 58.7 | 62 | 74.6 |
| NC1(c2ccc(-c3nc4ccn5c(=O)[nH]nc5c4cc3-c3ccccc3)cc2)CCC1 + Cc1cc(N2CCOCC2)cc2[nH]c(-c3c(NC[C@@H](O)c4cccc(Cl)c4)cc[nH]c3=O)nc12 [BMS536924] (first compound 2 µM, partner dose 1 µM) | 58.2 | 54.3 | 106 |
| CN(c1ncccc1CNc1nc(Nc2ccc3c(c2)CC(=O)N3)ncc1C(F)(F)F)S(C)(=O)=O + CO[C@H]1C[C@@H]2CC[C@@H](C)[C@@](O)(O2)C(=O)C(=O)N2CCCC[C@H]2C(=O)O[C@H]([C@H](C)C[C@@H]2CC[C@@H](OCCO)[C@H](OC)C2)CC(=O)[C@H](C)/C=C(\C)[C@@H](O)[C@@H](OC)C(=O)[C@H](C)C[C@H](C)/C=C/C=C/C=C/1C [everolimus] (first compound 0.4 µM, partner dose 0.1 µM) | 92.6 | 63.8 | 93.8 |
| NC1(c2ccc(-c3nc4ccn5c(=O)[nH]nc5c4cc3-c3ccccc3)cc2)CCC1 + OCCn1cc(-c2cnc3nnn(Cc4ccc5ncccc5c4)c3n2)cn1 [PF04217903] (first compound 2 µM, partner dose 5 µM) | 83.7 | 75 | 92.3 |
| CCCS(=O)(=O)Nc1ccc(F)c(C(=O)c2c[nH]c3ncc(Cl)cc23)c1F + C[C@]1(c2nc3c(C(N)=O)cccc3[nH]2)CCCN1 [Veliparib] (first compound 0.4 µM, partner dose 7 µM) | 68.6 | 89.5 | 86.9 |
| CS(=O)(=O)c1ccc(C(=O)Nc2ccc(Cl)c(-c3ccccn3)c2)c(Cl)c1 [vismodegib] + Nc1ncn([C@H]2C[C@H](O)[C@@H](CO)O2)c(=O)n1 [decitabine] (first compound 5 µM, partner dose 0.5 µM) | 98.5 | 83.3 | 113 |
| CN(c1ncccc1CNc1nc(Nc2ccc3c(c2)CC(=O)N3)ncc1C(F)(F)F)S(C)(=O)=O + O=C(O)c1ccc(-c2c[nH]c3ncc(-c4ccccc4)cc23)cc1C1CCCC1 [GSK650394] (first compound 0.4 µM, partner dose 0.8 µM) | 82.3 | 84.7 | 54.7 |
| CCCS(=O)(=O)Nc1ccc(F)c(C(=O)c2c[nH]c3ncc(Cl)cc23)c1F + C=CCNC1=C2C[C@@H](C)C[C@H](OC)[C@H](O)[C@@H](C)/C=C(\C)[C@H](OC(N)=O)[C@@H](OC)/C=C\C=C(/C)C(=O)NC(=CC1=O)C2=O [Tanespimycin] (first compound 0.4 µM, partner dose 0.01 µM) | 74.4 | 86.3 | 90.3 |
| CS(=O)(=O)c1ccc(C(=O)Nc2ccc(Cl)c(-c3ccccn3)c2)c(Cl)c1 [vismodegib] + CS(=O)(=O)CCNCc1ccc(-c2ccc3ncnc(Nc4ccc(OCc5cccc(F)c5)c(Cl)c4)c3c2)o1 [lapatinib] (first compound 5 µM, partner dose 4 µM) | 84.7 | 95.7 | 171 |
| CCCS(=O)(=O)Nc1ccc(F)c(C(=O)c2c[nH]c3ncc(Cl)cc23)c1F + Cc1nc(Nc2ncc(C(=O)Nc3c(C)cccc3Cl)s2)cc(N2CCN(CCO)CC2)n1 [dasatanib] (first compound 0.4 µM, partner dose 0.02 µM) | 71.2 | 81.4 | 97.3 |
| C=C(c1ccc(C(=O)O)cc1)c1cc2c(cc1C)C(C)(C)CCC2(C)C [Bexarotene] + C[C@@H]1CCN(C(=O)CC#N)C[C@@H]1N(C)c1ncnc2[nH]ccc12 [CP690550] (first compound 10 µM, partner dose 5 µM) | 87.6 | 91.7 | 97.4 |
| NC1(c2ccc(-c3nc4ccn5c(=O)[nH]nc5c4cc3-c3ccccc3)cc2)CCC1 + C[C@]1(c2nc3c(C(N)=O)cccc3[nH]2)CCCN1 [Veliparib] (first compound 2 µM, partner dose 7 µM) | 78.9 | 68.5 | 94.2 |
